Measurements from patent US11903907B2, “Soluble honokiol derivatives” (TAIPEI MEDICAL UNIVERSITY, priority 2017, dated 2024).

Test: Plasma concentration of honokiol and pharmacokinetics after intravenous injection in rats
Conditions: rat, HP-TMU 0.5 mg/kg i.v.
Experimental: Neurological deficit was examined and scored on an 18-point scale before and 24 and 48 h after MCAO reperfusion injury. The changes in neurological deficit scores of different groups are illustrated in FIG. 3A. […] Mean plasma concentrations of honokiol vs. time profile in five rats were measured after intravenous injection of HP-TMU or honokiol.
The plasma concentrations of honokiol at different points are expressed as mean±SD, and the mean concentration-time curve is shown in FIG. 4A.

SMILES: C=CCc1ccc(OP(=O)(O)O)c(-c2ccc(OP(=O)([O-])[O-])c(CC=C)c2)c1.[Na+].[Na+] [HP-TMU, sodium 3′,5-diallyl-[1,1′-biphenyl]-2,4′-diyl bis(phosphate)]
- honokiol in plasma after intravenous HP-TMU (conversion to honokiol): could be hydrolyzed to honokiol and be detected in rat plasma
